The series deals with the molecule itself. As to the kind of experiment: AUC; sedimentation equilibrium, 4 °C, 10 µM TLX LBD, three rotor speeds (11,000, 18,000, 22,000 r.p.m.), 20 mM Tris-HCl, 150 mM NaCl, 5 mM DTT, 10% glycerol, 1% DMSO, 2 mM CHAPS, pH 8.0; global fit, monomer-dimer equilibrium (dimer to monomers).

B1: human TLX ligand binding domain (TLX LBD, […]) (domain or fragment)
chain: not shown
notes: cloned into pET-46 Ek/LIC with an N-terminal His6-tag followed by a TEV protease cleavage site; on SDS-PAGE the protein runs at 25 kDa; also called Tailless; NR2E1; source: E. coli BL21 (DE3) star, purified (Ni2+-NTA, size exclusion chromatography on Superdex 200)
Turning to B1, the Kd was found to be 10 µM and the “stoichiometry N” value was found to be 2.

The values are drawn from paper PMC4060991, “The Human Orphan Nuclear Receptor Tailless (TLX, NR2E1) Is Druggable” (PLoS ONE, 2014).
